Read counts are not given, so values of variants with three or more changes are uncertain.

To fix the notation:
B1: LINE1-full (parent)
chain: UACGUAGGUGGUUUUCCCCUGAUAGUGCUAAGGGGGCCUGGAAGUUUGGACUGGGCAGAGCUCAACACAGCGUGGCAAAGUGGCUGUGGCUAGACUGCCUCUCUGGAUUCCUCGUCACUCAGCAGGGCAUCUCUGAGAGAAAUGCC

This data set covers variants of B1. Put plainly: self-cleavage, relative activity (ratio to wild type); higher = more cleavage; in vitro, sequencing; the parent is a self-cleaving ribozyme.
On to U15C G34A A79G A107G G122A, for which the self-cleavage was determined as 2.22.
For U15C U45C A129C C131A, the self-cleavage was 1.65.
Then U15C G58A U85C G93A A129U, with 0.03; and U15C U52C A69G U104A A129U U130C, with 0; and U15C U45C A59G, with 0.18.
With U15C U102A A142G, the self-cleavage amounted to 2.86.
Take U15C A22G A121G A141G A142U: the self-cleavage came to 1.84.
For U15C A43G A77C, the self-cleavage is 1.21.
For U15C U39C U47C C61A U81C A94G, the self-cleavage was 0.24.
As for U15C G55A U62C U87C A136U, the figure is 0.06; as for U15C U47C C71G U134C, 0.77; as for U15A A22U U96A A142G, 0.05.
With U14G A78G A142G, the self-cleavage was 1.1.
As for U14C U81A G126A A141G, the figure is 1.79; as for U15C U23C A94G U102C, 0.
As to U14C U85A G126C, the self-cleavage turned out to be 0.28.
As for U14C U81A U87C A92G A124G A141G, the figure is 1.15; as for U15C C123U A142G, 1.82; as for U15C A43G A78G, 0.72.
For the variant U15C C61A G80U A129G, the self-cleavage amounted to 0.02.
With U15C U96C A140G A142G, the self-cleavage was 0.13.
Then U15A G32A A50G C61A, with 0.11; and U15C U46C U134C, with 2.83.
Take U15A A78G C128U: the self-cleavage was 0.84.
U15C U26G A77U: the self-cleavage is 1.15.
Then U15A U39C A65G U100C, with 0; and U15C G33A U46A A64G U102C A117G, with 0.69.
Turning to U15A A77C U108C, the self-cleavage amounted to 0.2.
Take U14C U81C U96A A136G: the self-cleavage is 0.27.
With U15C U45A A59G A136G A140G, the self-cleavage came to 0.19.
With U14C U104C A129U, the self-cleavage turned out to be 2.51.
Consider U15C G40U G126A, for which the self-cleavage turned out to be 1.45.
U15A C19U U85C U134C A140G: the self-cleavage was 0.61.
On to U15C U62C A94G U132A A140G, for which the self-cleavage worked out at 0.44.
For the variant U14C U119C U130C, the self-cleavage is 1.74.
For U15C U26C U85C A136U A141G, the self-cleavage worked out at 0.88.
With U15C A43G U109A, the self-cleavage was found to be 1.17.
On to U14C U104C U130C U132A, for which the self-cleavage was determined as 1.97.
Then U15A A94G A141G, with 0.06; and U15C A124U A129G, with 1.23; and U14G U26A G35A U39C A69G U104A, with 0.25.
Regarding U15C U52C U85C, the self-cleavage was found to be 0.3.
Take U15C A121C A140U: the self-cleavage stood at 1.15.
U15C G36U A64G U73C A77G U134C: the self-cleavage came out at 0.66.
Then U15A G27A U29C A43G A77U, with 0.48.
Regarding U15A U62A A78U U91C, the self-cleavage is 0.06.
For U15A A121U U143C, the self-cleavage was determined as 1.28.
With U15C U52C A69G U143C, the self-cleavage came out at 0.
Then U15C U45C G49A, with 1.4.
Then U15A G40A U45C A117C, with 1.12.
As for U14C U85C C110U, the figure is 0.35; as for U15C A57G A64U C71U U85A U100C, 0; as for U15A A24U A94G, 0.37.
Regarding U15C G21A A42G, the self-cleavage was 1.36.
As for U15A A30G U52G, the self-cleavage was determined as 1.38.
U15C U73C G88A U96C: the self-cleavage is 0.2.
With U14C U102C A140G, the self-cleavage is 1.01.
In the case of U15C U20C A107G, the self-cleavage came to 1.43.
On to U15C U46C U62C C146U, for which the self-cleavage amounted to 0.12.
Consider U15C A64U C110G A140G A142G, for which the self-cleavage was 0.33.
As for U14C U85C A136G A140G, the self-cleavage was 0.34.
Then U15C A50U U85C A124U, with 0.
Then U15C A78G U108A U143C, with 1.09; and U15A C18U A65U C128U, with 0.16; and U15C A43U A65U A129G U134A, with 0.
For the variant U15A U46A G83A A92G A107G, the self-cleavage was 0.04.
For the variant U15C C61U U87A A117U, the self-cleavage stood at 0.03.
Regarding U15C C63U A64G U100C A140G, the self-cleavage was 0.
With U14C U87C A121U, the self-cleavage came to 0.48.
Then U15C A43G A64G U73A A140G, with 0; and U15A G25C U102C A129G G139A U143A, with 0; and U15C U102C A138G, with 1.72.
As for U15A A59G U96A A121U G125U, the figure is 0.
U15C A57U U62C: the self-cleavage turned out to be 0.
Regarding U14C U130C A140G, the self-cleavage worked out at 1.21.
With U15C U45C A78G A92G, the self-cleavage came out at 0.4.
Turning to U15A U62C A138G, the self-cleavage is 0.67.
On to U15C U52A G139U, for which the self-cleavage was 1.3.
As to U15C C63U U96C A121G A142G, the self-cleavage was 0.06.
Then U15A A78C A79G, with 0.74; and U15A U23A U62C, with 0.06; and U14C U81A A124G A141G C146U, with 2.19.
Then U15C A30C U45C, with 2.23.
